{"source": "paper PMC4336329", "about": "(PLoS ONE, 2015)", "note": "Among all 310,000 compounds or so, about 14,000 (4.5%) showed an effect of 50% or more. Effects have a minus sign here. The list shows a part of the results.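 Note: peak tail current of the secondary pulse compared with the same well before compound.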"}
{"biological_target": "human ether-à-go-go-related gene (hERG) potassium channel (human, UniProt Q12809)", "sequence (Q12809 whole entry, looked up)": "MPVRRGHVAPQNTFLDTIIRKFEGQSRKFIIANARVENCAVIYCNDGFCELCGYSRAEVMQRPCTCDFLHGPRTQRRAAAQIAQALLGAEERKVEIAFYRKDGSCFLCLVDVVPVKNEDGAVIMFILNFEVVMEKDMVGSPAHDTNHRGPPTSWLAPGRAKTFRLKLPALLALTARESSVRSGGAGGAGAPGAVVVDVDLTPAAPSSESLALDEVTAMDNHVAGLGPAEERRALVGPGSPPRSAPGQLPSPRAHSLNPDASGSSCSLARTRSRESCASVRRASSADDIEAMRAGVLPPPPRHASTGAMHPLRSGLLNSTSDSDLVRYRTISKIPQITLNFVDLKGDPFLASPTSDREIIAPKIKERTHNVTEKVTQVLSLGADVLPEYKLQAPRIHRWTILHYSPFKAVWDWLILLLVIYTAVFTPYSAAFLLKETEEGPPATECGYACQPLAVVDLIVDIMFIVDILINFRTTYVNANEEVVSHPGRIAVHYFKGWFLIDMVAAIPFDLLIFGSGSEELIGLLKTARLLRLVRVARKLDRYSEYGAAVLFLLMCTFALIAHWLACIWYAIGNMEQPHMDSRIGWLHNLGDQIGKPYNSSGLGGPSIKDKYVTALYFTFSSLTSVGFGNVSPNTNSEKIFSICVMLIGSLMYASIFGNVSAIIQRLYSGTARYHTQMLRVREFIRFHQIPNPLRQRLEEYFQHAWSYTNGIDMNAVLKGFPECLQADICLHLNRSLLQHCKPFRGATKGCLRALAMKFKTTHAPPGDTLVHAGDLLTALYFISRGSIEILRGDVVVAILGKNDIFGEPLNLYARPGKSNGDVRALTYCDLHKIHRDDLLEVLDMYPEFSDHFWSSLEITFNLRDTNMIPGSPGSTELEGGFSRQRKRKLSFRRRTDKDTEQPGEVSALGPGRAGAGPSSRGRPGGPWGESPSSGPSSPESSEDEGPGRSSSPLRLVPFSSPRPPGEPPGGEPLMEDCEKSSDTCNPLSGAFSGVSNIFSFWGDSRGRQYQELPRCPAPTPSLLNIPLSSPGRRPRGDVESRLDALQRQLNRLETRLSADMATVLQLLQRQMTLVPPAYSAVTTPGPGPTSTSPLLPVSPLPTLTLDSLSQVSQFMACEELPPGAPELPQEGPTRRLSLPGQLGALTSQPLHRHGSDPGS", "experiment": "primary screen, population patch clamp on CHO cells stably expressing hERG", "units": {"hERG current change (%, negative = inhibition) at 10uM": "%"}}
{"smiles": "O=C(CCCO)CCCCCCCCC[C@H]1N[C@H](CO)[C@@H](O)[C@@H]1O", "hERG current change (%, negative = inhibition) at 10uM": 6.38}
{"smiles": "COc1ccc(C(O)P(=O)(OCCC(C)C)c2ccc(N(C)C)cc2)cc1OC", "note": "(stereo not drawn)", "hERG current change (%, negative = inhibition) at 10uM": 5.79}
{"smiles": "COc1ccc(NC(=O)NCc2ccc(Cl)cc2)cc1", "hERG current change (%, negative = inhibition) at 10uM": 9.26}
{"smiles": "Fc1ccc(CNC(=S)NC2CCCC2)cc1", "hERG current change (%, negative = inhibition) at 10uM": 10.1}
{"smiles": "C[C@]12C=CC(=O)C=C1C=C[C@@H]1C2CC[C@]2(C)C(=O)CCC12", "note": "(stereo partly drawn)", "hERG current change (%, negative = inhibition) at 10uM": -7.32}
{"smiles": "CC(C)(C)C(=O)NC(=S)Nc1ccccc1N1CCCC1", "hERG current change (%, negative = inhibition) at 10uM": 8.62}
{"smiles": "c1ccc(N=P(N2CCOCC2)(N2CCOCC2)N2CCOCC2)cc1", "hERG current change (%, negative = inhibition) at 10uM": -2.76}
{"smiles": "Cc1ccc(NC(=O)C2CCCN(S(=O)(=O)c3cccc4cccnc34)C2)cc1", "note": "(stereo not drawn)", "hERG current change (%, negative = inhibition) at 10uM": -17.6}
{"smiles": "CCCc1nnc(NC(=O)CCC(=O)N2CCN(Cc3ccc(F)cc3)CC2)s1", "hERG current change (%, negative = inhibition) at 10uM": 1.56}
{"smiles": "CC(=O)NC(CC(=O)OCC(=O)NCCc1ccccc1)c1ccccc1", "note": "(stereo not drawn)", "hERG current change (%, negative = inhibition) at 10uM": 13.7}
{"smiles": "Cc1ccc(C)n1-c1ccc(C(=O)NN)s1", "hERG current change (%, negative = inhibition) at 10uM": 5.43}
{"smiles": "COC(=O)CCCCC1SCC2NC(=O)NC21", "note": "(stereo not drawn)", "hERG current change (%, negative = inhibition) at 10uM": 8.96}
{"smiles": "COc1ccc(OCc2cc(-c3ccc(Cl)cc3)no2)cc1", "hERG current change (%, negative = inhibition) at 10uM": 9.68}
{"smiles": "CCOC(=O)C1=C(N)n2c(s/c(=C/c3ccccc3)c2=O)=C(C(=O)OCC)C1c1ccccc1", "note": "(stereo not drawn)", "hERG current change (%, negative = inhibition) at 10uM": 7.33}
{"smiles": "CC(C)CSc1nsc(N)n1", "hERG current change (%, negative = inhibition) at 10uM": 23.1}
{"smiles": "OC1(C(F)(F)F)CC(c2ccc3ccccc3c2)=NO1", "note": "(stereo not drawn)", "hERG current change (%, negative = inhibition) at 10uM": 4.45}
{"smiles": "CC1CCN(C(=O)COC(=O)C23CC4CC(CC(O)(C4)C2)C3)CC1", "hERG current change (%, negative = inhibition) at 10uM": 9.83}
{"smiles": "Cc1ccc(N(C)C(=O)c2ccc(CNc3c(N4CCC(C)CC4)c(=O)c3=O)cc2)cc1", "hERG current change (%, negative = inhibition) at 10uM": 5.04}
{"smiles": "O=C(N/N=C/c1ccccc1C(=O)O)c1cc(-c2ccc3c4c(cccc24)CC3)n[nH]1", "hERG current change (%, negative = inhibition) at 10uM": 21.2}
{"smiles": "Cc1ccsc1C1NC(=O)c2c(sc3c2CCCC3)N1", "note": "(stereo not drawn)", "hERG current change (%, negative = inhibition) at 10uM": -5.53}
{"smiles": "CN(C)c1cc2c(cc1NC(=O)c1ccccc1Cl)n(C)c(=O)n2C", "hERG current change (%, negative = inhibition) at 10uM": 7.89}
{"smiles": "C=CCNCC(=O)N1N=C(c2ccc3ccccc3c2)CC1c1ccc(OC)cc1.O=C(O)C(=O)O", "note": "(stereo not drawn)", "hERG current change (%, negative = inhibition) at 10uM": -36}
{"smiles": "O=C(O)c1ccc(S(=O)(=O)c2ccc3c(c2)C(=O)N(CC2CCCO2)C3=O)cc1", "note": "(stereo not drawn)", "hERG current change (%, negative = inhibition) at 10uM": 11.3}
{"smiles": "CN(Cc1ccccc1F)c1ccc(S(=O)(=O)N2CCCC2)cn1", "hERG current change (%, negative = inhibition) at 10uM": -5.47}
{"smiles": "COc1cccc(CNC(=O)C2CCCN(c3cnccn3)C2)c1", "note": "(stereo not drawn)", "hERG current change (%, negative = inhibition) at 10uM": -14.4}
{"smiles": "O=C(O)c1ccccc1C(=O)NCc1ccc(F)cc1", "hERG current change (%, negative = inhibition) at 10uM": 13.1}
{"smiles": "c1ccc2c(c1)nc1sccn12", "hERG current change (%, negative = inhibition) at 10uM": -9.75}
{"smiles": "NC(=O)c1ccsc1NC(=O)CN1C(=O)NC2(CCCCC2)C1=O", "hERG current change (%, negative = inhibition) at 10uM": 27.7}
{"smiles": "CCC(CC)c1nnc(NC(=O)c2nc3nc(C)cc(C)n3n2)s1", "hERG current change (%, negative = inhibition) at 10uM": 8.09}
{"smiles": "CCOC(=O)Cn1nc(C)c(NC(=O)c2ccc([N+](=O)[O-])c(C)c2)c1C", "hERG current change (%, negative = inhibition) at 10uM": 10.2}
{"smiles": "COc1ccc2cc(CCNC(=O)CCc3ccccc3)c(=O)[nH]c2c1", "hERG current change (%, negative = inhibition) at 10uM": -0.519}
{"smiles": "CCc1ccccc1NC(=O)N1C2CCCC1CC(NC(C)=O)C2", "note": "(stereo not drawn)", "hERG current change (%, negative = inhibition) at 10uM": 21.4}
{"smiles": "O=C1c2ccccc2C(=O)c2cc(S(=O)(=O)Nc3ccccc3)ccc21", "hERG current change (%, negative = inhibition) at 10uM": 8.24}
{"smiles": "CCN(CC(=O)NC(C)(C)C)C(=O)CCl", "hERG current change (%, negative = inhibition) at 10uM": -0.283}
{"smiles": "CSCCC(NC(=O)c1ccccc1Cl)C(=O)NNC(=O)c1csc(N2CCOCC2)n1", "note": "(stereo not drawn)", "hERG current change (%, negative = inhibition) at 10uM": -29.9}
{"smiles": "Cc1ccc(C(=O)Nc2ccccc2Oc2ccccc2)o1", "hERG current change (%, negative = inhibition) at 10uM": -4.72}
{"smiles": "CC(=O)c1ccc(NC(=O)C2CC(=O)N(Cc3ccccc3)C2)cc1", "note": "(stereo not drawn)", "hERG current change (%, negative = inhibition) at 10uM": 13.4}
{"smiles": "CCOC(=O)/C(C#N)=C/c1cc(C)n(-c2ccc(C)cc2)c1C", "hERG current change (%, negative = inhibition) at 10uM": 10.4}
{"smiles": "CC(C)(C)c1ccc(C(=O)NN=C2CCCC2)cc1", "hERG current change (%, negative = inhibition) at 10uM": 9.99}
{"smiles": "CCCc1cc(C(=O)N/N=C/c2ccc(CC)s2)c2ccccc2n1", "hERG current change (%, negative = inhibition) at 10uM": 6.64}
{"smiles": "NC(=O)CCC(=O)N1CCCC(C(=O)c2ccc3c4c(cccc24)CC3)C1", "note": "(stereo not drawn)", "hERG current change (%, negative = inhibition) at 10uM": 2.05}
{"smiles": "O=C(CNS(=O)(=O)c1cccs1)N1CCN(c2ccccc2F)CC1", "hERG current change (%, negative = inhibition) at 10uM": 5.12}
{"smiles": "CCCc1nc(N)sc1C(=O)OCC", "hERG current change (%, negative = inhibition) at 10uM": 2.82}
{"smiles": "CCOc1ccc(-n2c(SCC(=O)Nc3cc(OC)c([N+](=O)[O-])cc3C)nc3ccccc32)cc1", "hERG current change (%, negative = inhibition) at 10uM": 12.3}
{"smiles": "CCC(C)(C)n1nnnc1C(CC(C)C)N1CCC(C(N)=O)CC1", "note": "(stereo not drawn)", "hERG current change (%, negative = inhibition) at 10uM": 2.14}
